Test results reported in the supplement of paper PMC11876631.
Where a chain is given by its changes, count along the chain named. In names and notes the source's numbering stands. ± gives the standard deviation of the averaged measurements. Laboratory Escherichia coli strains with one amino-acid change in an essential protein, pooled on minimal glucose agar with carbenicillin or gentamicin at twice the control MIC (plus kanamycin and chloramphenicol for the plasmids), 48 h. Fold change of barcode share against drug-free plates; higher = less susceptible. Active = above 20 in both replicates (the paper's putatively resistant). '<' = one read or none on drug, '>' = one read or none on a drug-free plate. Shares are relative, so most strains fall below 1 when a few take over. Listed are strains with at least 15 reads on both drug-free plates, and hits; most hits rest on fewer reference reads. Replicate rank correlation about 0.5. Edits are read from barcodes.

B1: nrdA V226Q (protein)
chain: MNQNLLVTKRDGSTERINLDKIHRVLDWAAEGLHNVSISQVELRSHIQFYDGIKTSDIHETIIKAAADLISRDAPDYQYLAARLAIFHLRKKAYGQFEPPALYDHVVKMVEMGKYDNHLLEDYTEEEFKQMDTFIDHDRDMTFSYAAVKQLEGKYLVQNRVTGEIYESAQFLYILVAACLFSNYPRETRLQYVKRFYDAVSTFKISLPTPIMSGVRTPTRQFSSCQLIECGDSLDSINATSSAIVKYVSQRAGIGINAGRIRALGSPIRGGEAFHTGCIPFYKHFQTAVKSCSQGGVRGGAATLFYPMWHLEVESLLVLKNNRGVEGNRVRHMDYGVQINKLMYTRLLKGEDITLFSPSDVPGLYDAFFADQEEFERLYTKYEKDDSIRKQRVKAVELFSLMMQERASTGRIYIQNVDHCNTHSPFDPAIAPVRQSNLCLEIALPTKPLNDVNDENGEIALCTLSAFNLGAINNLDELEELAILAVRALDALLDYQDYPIPAAKRGAMGRRTLGIGVINFAYYLAKHGKRYSDGSANNLTHKTFEAIQYYLLKASNELAKEQGACPWFNETTYAKGILPIDTYKKDLDTIANEPLHYDWEALRESIKTHGLRNSTLSALMPSETSSQISNATNGIEPPRGYVSIKASKDGILRQVVPDYEHLHDAYELLWEMPGNDGYLQLVGIMQKFIDQSISANTNYDPSRFPSGKVPMQQLLKDLLTAYKFGVKTLYYQNTRDGAEDAQDDLVPSIQDDGCESGACKI
B2: nrdA L26A (protein)
chain: B1 chain with L26A, Q226V
B3: nrdA L26W (protein)
chain: B1 chain with L26W, Q226V
B4: nrdA L26D (protein)
chain: B1 chain with L26D, Q226V

Target: Escherichia coli (laboratory strain)
Assay: barcode share on antibiotic plates over drug-free plates; higher = less susceptible
Experimental: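 A pool of E. coli strains, each edited to carry one amino-acid change in an essential protein, was grown for 48 h on minimal glucose agar with or without antibiotic; strain barcodes were sequenced; mean of two replicates.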

[1] = antibiotic: carbenicillin, 2× MIC (3.1 µg/mL)
[2] = antibiotic: gentamicin, 2× MIC (MIC 0.45 µg/mL)

| Protein | fold change of barcode share [1] | fold change of barcode share [2] |
| --- | --- | --- |
| B1 | 0.126 ± 0.013 | < 0.00354 |
| B2 | 0.223 ± 0.14 | < 0.0121 |
| B3 | 0.158 ± 0.078 |  |
| B4 | 0.481 ± 0.45 |  |
